Results reported in the supplement of paper PMC10369915.
Some of the results follow. Cut-off read from the data, not from the text of the source: active = 3.2 or more and inactive = the rest. The signal is at background level for most entries.

How the values were obtained:
Assay in all cases: enrichment score (SH2-bound / input frequency) (ratio); bacterial display of known human phosphotyrosine sites (pTyr-Var adds point mutants) read by sequencing; higher = stronger binding; tyrosines were phosphorylated by kinases first
Conditions in all cases: peptide library: pTyr-Var
SHP2 C-SH2 domain E139D = biological target: SHP2 C-SH2 domain E139D
[1] = biological target: SHP2 C-SH2 domain wild-type
SHP2 N-SH2 domain L43F = biological target: SHP2 N-SH2 domain L43F
SHP2 N-SH2 domain T42A = biological target: SHP2 N-SH2 domain T42A
SHP2 N-SH2 domain T52S = biological target: SHP2 N-SH2 domain T52S
[2] = biological target: SHP2 N-SH2 domain wild-type
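Note: displayed peptides selected on beads carrying the immobilized SH2 domain, with library peptides lacking any tyrosine serving as negative controls.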

Binder	enrichment score (SHP2 C-SH2 domain E139D)	enrichment score [1]	enrichment score (SHP2 N-SH2 domain L43F)	enrichment score (SHP2 N-SH2 domain T42A)	enrichment score (SHP2 N-SH2 domain T52S)	enrichment score [2]
PCLLRYLQLDF [ASB10_Y457_R453C]	inactive: 3.08	inactive: 2.98	active: 7.49	active: 8.59	active: 8.51	active: 4.2
ATDLAYYLVRK [ASL_Y375]	inactive: 0.701	inactive: 0.704	inactive: 0.848	inactive: 0.612	inactive: 0.841	inactive: 0.617
ATDLAYFLVRE [ASL_Y375_K380E_YF]	inactive: 1.05	inactive: 0.952	inactive: 1.15	inactive: 0.998	inactive: 0.88	inactive: 0.991
ATDLAYYLVCK [ASL_Y375_R379C]	inactive: 1.07	inactive: 1.52	inactive: 1.15	inactive: 1.05	inactive: 0.96	inactive: 1.83
ATDLAYFLVCK [ASL_Y375_R379C_YF]	inactive: 1.04	inactive: 1.33	inactive: 0.852	inactive: 0.774	inactive: 0.875	inactive: 1.32
ATDLAYFLVRK [ASL_Y375_YF]	inactive: 1.07	inactive: 0.87	inactive: 0.816	inactive: 0.882	inactive: 1.02	inactive: 1.03
TDLAYYLVREG [ASL_Y376_K380E]	inactive: 0.926	inactive: 1.29	inactive: 0.79	inactive: 1.24	inactive: 0.625	inactive: 0.911
TDLAFYLVREG [ASL_Y376_K380E_YF]	inactive: 1.15	inactive: 1.23	inactive: 1	inactive: 1.05	inactive: 0.963	inactive: 1.14
TDLAYYLVCKG [ASL_Y376_R379C]	inactive: 0.619	inactive: 1.01	inactive: 0.818	inactive: 0.678	inactive: 0.324	inactive: 0.994
TDLAFYLVCKG [ASL_Y376_R379C_YF]	inactive: 0.806	inactive: 0.934	inactive: 0.944	inactive: 0.947	inactive: 0.733	inactive: 1.47
TDLAFYLVRKG [ASL_Y376_YF]	inactive: 0.869	inactive: 0.652	inactive: 0.974	inactive: 0.786	inactive: 0.735	inactive: 0.765
CTLTHYKSAVK [ASNS_Y555_R550C]	inactive: 0.91	inactive: 1.2	inactive: 1	inactive: 0.959	inactive: 0.911	inactive: 1.17
KKCTRYIDCDR [ASPA_Y64_L69R]	inactive: 0.852	inactive: 1.05	inactive: 0.945	inactive: 0.776	inactive: 1.04	inactive: 0.818
KKCTTYIDCDL [ASPA_Y64_R63T]	inactive: 0.781	inactive: 1.1	inactive: 0.965	inactive: 1.02	inactive: 0.974	inactive: 0.988
REGAKYVSHCA [ASS1_Y113_G117C]	inactive: 0.588	inactive: 0.973	inactive: 0.965	inactive: 0.688	inactive: 0.579	inactive: 0.923
REGAKYVSHDA [ASS1_Y113_G117D]	inactive: 0.463	inactive: 0.599	inactive: 0.538	inactive: 0.37	inactive: 0.522	inactive: 0.584
LEGAKYVSHGA [ASS1_Y113_R108L]	inactive: 0.453	inactive: 0.482	inactive: 0.321	inactive: 0.439	inactive: 0.321	inactive: 0.575
NDLMEYAKQHG [ASS1_Y163]	inactive: 0.988	inactive: 0.897	inactive: 0.889	inactive: 0.861	inactive: 0.851	inactive: 1.08
NDPMEYAKQHG [ASS1_Y163_L160P]	inactive: 0.474	inactive: 0.6	inactive: 0.562	inactive: 0.463	inactive: 0.43	inactive: 0.775

Binder	enrichment score (SHP2 C-SH2 domain E139D)	enrichment score [1]	enrichment score (SHP2 N-SH2 domain L43F)	enrichment score (SHP2 N-SH2 domain T42A)	enrichment score (SHP2 N-SH2 domain T52S)	enrichment score [2]
FAELVYTVFWH [ASS1_Y322_G324V]	inactive: 2.23	inactive: 1.88	inactive: 2.19	inactive: 1.69	inactive: 2.35	inactive: 2.01
FAELMYTGFWH [ASS1_Y322_V321M]	inactive: 1.7	inactive: 1.56	inactive: 1.79	inactive: 1.65	inactive: 1.3	inactive: 1.65
LKGQVYILGRE [ASS1_Y359]	inactive: 0.497	inactive: 0.647	inactive: 0.553	inactive: 0.644	inactive: 0.431	inactive: 0.563
LKGQVYILGGE [ASS1_Y359_R363G]	inactive: 1.06	inactive: 1.22	inactive: 1.05	inactive: 0.923	inactive: 1.15	inactive: 1.36
QSSALYEDHFL [ASS1_Y83_R86H_YF]	inactive: 0.932	inactive: 0.773	inactive: 0.714	inactive: 0.678	inactive: 0.799	inactive: 1.04
QPSALYEDRFL [ASS1_Y83_S79P_YF]	inactive: 0.961	inactive: 0.923	inactive: 0.713	inactive: 0.873	inactive: 0.73	inactive: 1.14
LYEDRYLLGTS [ASS1_Y87]	inactive: 0.894	inactive: 1.02	inactive: 0.894	inactive: 0.814	inactive: 1.09	inactive: 1.83
LYEDCYLLGTS [ASS1_Y87_R86C]	inactive: 0.996	inactive: 0.977	inactive: 1.07	inactive: 0.882	inactive: 1.11	inactive: 1.27
LFEDHYLLGTS [ASS1_Y87_R86H_YF]	inactive: 1.38	inactive: 1.21	inactive: 1.39	inactive: 1.08	inactive: 1.06	inactive: 1.58
LFEDRYLLGTS [ASS1_Y87_YF]	inactive: 0.938	inactive: 0.843	inactive: 0.95	inactive: 0.943	inactive: 0.965	inactive: 0.759
RVLKLYGCSPS [ASTL_Y279]	inactive: 0.443	inactive: 0.548	inactive: 0.535	inactive: 0.474	inactive: 0.553	inactive: 0.812
RVLQLYGCSPS [ASTL_Y279_K277Q]	inactive: 0.633	inactive: 1.06	inactive: 0.947	inactive: 0.5	inactive: 0.734	inactive: 1.1
KSPDSYQKILL [ATM_Y1415]	inactive: 0.729	inactive: 0.728	inactive: 0.732	inactive: 0.765	inactive: 0.812	inactive: 0.672
KSPDSYQKILP [ATM_Y1415_L1420P]	inactive: 0.781	inactive: 0.662	inactive: 0.629	inactive: 0.755	inactive: 0.727	inactive: 0.63
HAVVDYMRRQK [ATM_Y1915_L1910H]	inactive: 0.406	inactive: 0.415	inactive: 0.354	inactive: 0.392	inactive: 0.195	inactive: 0.304
LAVVDYIRRQK [ATM_Y1915_M1916I]	inactive: 0.219	inactive: 0.353	inactive: 0.257	inactive: 0.217	inactive: 0.253	inactive: 0.369
EPDSLYGCGGG [ATM_Y2019]	inactive: 0.571	inactive: 0.744	inactive: 0.597	inactive: 0.515	inactive: 0.538	inactive: 0.636
PLKALYLQQRL [ATM_Y2969_P2974L]	inactive: 1.22	inactive: 1.08	inactive: 0.989	inactive: 0.964	inactive: 1.2	inactive: 1.14
